This experiment deals with 317291-083-R-J1-PDC complex spheroid growth. Kind of experiment: Anticancer human tumor 317291-083-R-J1-PDC patient-derived soft tissue sarcoma cell line growth inhibition [Asc]. The following applies: for viability, T/C: stronger effect = lower value; for IC50: compound alone. As for the experimental part: Multicellular complex tumor spheroid response to apoptosis pathway targeting inhibitors Alrizomadlin, Pelcitoclax, and Dasminapant in combination with a variety of drugs and investigational agents in selected tumor cell lines
The MDM2 inhibitor alrizomadlin, the Bcl-2/Bcl-xL inhibitor pelcitoclax, and the IAPs inhibitor dasminapant were evaluated both individually and in combination with standard of care and investigational anticancer small molecules within a complex spheroid model of solid tumors. . Complex spheroids include a stromal component modeled by human endothelial cells (HUVEC) and fibroblasts modeled by human mesenchymal stem cells (MSCs). The concentration ranges selected for each drug and investigational agent were based upon clinically achievable concentrations if the clinical Cmax of the agent was known.
Compounds. The drugs and investigational agents: alrizomadlin (APG-115; NSC831270), pelcitoclax (APG-1252; NSC835773), dasminapant (APG-1387;NSC834197), TAK-243 (NSC785004), copanlisib (NSC809693), olaparib (NSC753686), talazoparib (NSC767125), cobimetinib (NSC 768068), eltanexor (KPT-8602, NSC 794443), abemaciclib (NSC 768073), sotorasib (NSC818433), adagrasib (NSC 831453), MRTX-1133 (NSC 836407), Iadademestat (ORY1001, NSC 806812), and RMC-4630 (NSC839698), were obtained from the NCI Developmental Therapeutics Program Chemical Repository. The FDA-approved anticancer drug set is available from the Developmental Therapeutics Program at https://dtp.cancer.gov/organization/dscb/obtaining/available plates.htm. […] The stock solutions were prepared in dimethyl sulfoxide (DMSO, Sigma-Aldrich, St. Louis, MO, cat. D2650) at 800-fold the tested concentration and stored at -70 degrees C prior to their use. All drugs and investigational agents were tested over a range starting from a high concentration at or near the clinical Cmax and decreasing in half-log increments. If the clinical Cmax for an agent had not been determined, the highest concentration tested was 10 microM.
The patient-derived cancer (PDC) cell lines include five colon adenocarcinomas: 186277-243-T-J2-PDC, 616215-338-R-J1-PDC, 439559-082-T-J2-PDC, 463943-066-T-J2-PDC, and 519858-162-T-J1-PDC; three pancreatic carcinomas: 323965-272-R-J2-PDC, 521955-158-R6-J3-PDC, and 521955-158-R2-J5-PDC; two uterine sarcomas: 327498-152-R-J2-PDC and 993429-296-R-J1-PDC; two rhabdomyosarcomas: 755483-174-R-J1-PDC and 772245-204-R-J1-PDC; two soft tissue sarcomas: 126254-015-R-J1-PDC and 494315-158-R-J1-PDC; two malignant fibrous histiocytomas: 317291-083-R-J1-PDC and 596521-263-R-J1-PDC; two breast carcinomas: 171881-019-R-J1-PDC and 885512-296-R-J2-PDC; and one ovarian carcinoma: 6556581-035-R-J-PDC were obtained from the NCI PDMR, (https://pdmr.cancer.gov). The established cell lines HSSY-2 synovial sarcoma (RRID:CVCL 8719), SYO-1 synovial sarcoma (RRID:CVCL_7146), MPNST malignant peripheral neural sheath tumor were obtained from the Sloan Kettering Institute. The following established cell lines were purchased from the American Type Culture Collection (ATCC, Manassas, VA), Sor the received from the NCI repository:, PANC-1 pancreatic carcinoma (CRL-1469, RRID:CVCL_0480), OVCAR-5 ovarian carcinoma (RRID:CVCL_1628), OVCAR-8 ovarian carcinoma (RRID:CVCL_1629), , MCF-7 breast carcinoma (CRL-12584, RRID:CVCL_0031), MDA-MB-231 breast carcinoma (CRL-12532, RRID:CVCL_0062), NCI-H1876 small cell lung carcinoma (CRL-5902, RRID:CVCL_1503), NCI-H510A small cell lung carcinoma (HTB-184, RRID:CVCL_1565), NCI-H1417 (CRL-5869, RRID:CVCL_1469), and NCI-H196 small cell lung carcinoma (CRL-5823, RRID:CVCL_1509). Dr. Peter Houghton (Greehey Children's Cancer Research Institute, University of Texas Health Science Center, San Antonio, TX) provided Rh-18 rhabdomyosarcoma (RRID:CVCL_1659). Pooled donor human umbilical vein endothelial cells (HUVEC, Lonza, cat. CC-2519) and human mesenchymal stem cells (hMSC, Lonza, cat. PT-2501) were purchased from Lonza (Walkersville, MD).
Cell Culture. […]

Certain results were filed several times, with different values. This is not the full list of results. The source may hold further records. Values given together repeat one measurement in other runs, samples, wells, individuals or studies. Brackets with × say how often a value occurs here.
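Further: compound exposure lasted seven days after spheroids formed for three days.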
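Wherever viability, T/C is given: 100% = DMSO vehicle control wells.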

For `CNC(C)C(=O)NC1CN(S(=O)(=O)c2cccc(S(=O)(=O)N3CCC4CCC(C(=O)NC(c5ccccc5)c5ccccc5)N4C(=O)C(NC(=O)C(C)NC)C3)c2)CCC2CCC(C(=O)NC(c3ccccc3)c3ccccc3)N2C1=O` (stereo not drawn), the viability, T/C (as a rule, the ratio of treated to control) was 83.6, 93.9, 5.43, 72.6, 93.5, 89, 74.9, 89.1, 72% (compound alone 0.00316 µM); 88.7, 84.5, 41.1, 78.2, 108, 92.3, 78.4, 74, 85% (compound alone 0.01 µM); 58.4, 77.2, 46.3, 49.7, 87, 62.4, 60.3, 71.7, 50.9% (compound alone 0.1 µM); 56.6, 43.2, 60, 72, 48.7, 55.9, 48.1, 47.3% (compound alone 0.316 µM); 43.4, 35.9, 39.2, 40.9, 63, 41.3, 40.3, 48.7, 31.6% (compound alone 1 µM). The IC50 (as a rule, the point on the concentration scale where inhibition reaches its midpoint) (drug combinations, run of 11/15/2022) was < 3.16 nM, 99.8 nM, > 1 µM, 271 nM, 464 nM, 687 nM, 154 nM.

With `NC(=O)C(=Cn1cnc(-c2cc(C(F)(F)F)cc(C(F)(F)F)c2)n1)c1cncnc1`, the IC50 is on record as 20.1 nM, 27 nM, < 0.949 nM.

Turning to `CCN1C(C(=O)NC23CCC(C(=O)O)(CC2)CC3)C(c2cccc(Cl)c2F)C2(C(=O)Nc3cc(Cl)ccc32)C12CCCCC2` (stereo not drawn), the viability, T/C reads like this: (compound alone 0.00949 µM) 99.5, 85.7, 127, 100, 93.4, 101, 112, 107, 84.3%; (compound alone 0.03 µM) 113, 91.4, 96.9, 95.2, 99.8, 99.3, 109, 112, 86.8%; (compound alone 0.949 µM) 78.5, 88.9, 106, 102 (2×), 92, 96.2, 105, 94.8%.

Take `Cc1c(S(C)(=O)=O)c(-c2cc(F)cc(N3CCN(c4ccc(NS(=O)(=O)c5ccc(NC(CCN6CCC(C(=O)OCCCP(=O)(O)O)CC6)CSc6ccccc6)c(S(=O)(=O)C(F)(F)F)c5)cc4)CC3)c2)c(-c2ccc(Cl)cc2)n1C(C)C` (stereo not drawn): the viability, T/C (compound alone 0.1 µM) is 74.3, 92, 104 (2×), 99.4, 90.9, 94.3%; the viability, T/C (compound alone 1 µM) was 91.8, 73.1, 103, 84.3, 87.4, 78.9, 79%; the viability, T/C (compound alone 10 µM) was 80.1, 90.1, 105, 112, 86.8, 90.3, 84.4%.

Source of the values: PubChem BioAssay AID1963427 (Molecular Pharmacology Branch, DTP, NCI, 2024).
